Measured values as given in patent US9872922B2, “Anti-EFNA4 antibody-drug conjugates” (PFIZER, INC., priority 2013, dated 2018).

Assays:
[1] = system: Breast-56 (BR56) TNBC PDX; assay: In vivo efficacy, BR56 TNBC PDX; parameters: species or system NOD/SCID mice (human tumor PDX); conditions: 0.27 mg/kg
[2] = system: Ovarian-45 (OV45) ovarian cancer PDX; assay: In vivo efficacy, OV45 ovarian cancer PDX; parameters: species or system NOD/SCID mice (human tumor PDX)
Method: Regressions were also achieved at the 0.09 mg/kg dose level, with tumor regrowth in some animals after 50 days. The 0.036 dose level delayed tumor growth for ˜25 days.

[3] = system: OV124; assay: In vivo efficacy, OV124 ovarian cancer model; parameters: species or system NOD/SCID mice (human tumor PDX); conditions: 0.27 mg/kg
[4] = system: BR13 tumor-initiating cells; assay: Tumor-initiating cell (TIC) frequency by limit dilution analysis, BR13; assay type: in vivo, mice (human tumor PDX)
Method: The day of harvest serial transplantation was chosen based on when tumors were starting to regress following huE22-AcBut-CM exposure. Tumors were dissociated and stained with anti-human ESA, anti-mouse CD45, and anti-mouse H2Kd antibodies. Three tumors per treatment group were pooled, and live human tumor cells (ESA+) were sorted by flow cytometry.
Tumors in recipient mice were measured weekly and at 21 weeks post-injection, tumors that exceeded 200 mm^3 in recipient mice were scored as positive. Using Poisson distribution statistics, via L-Calc software (Stemcell Technologies, Vancouver, BC), injected cell doses of recipients with and without tumors at 21 weeks post-transplant were used to calculate the frequencies of TIC in each population.

[5] = system: BR64; assay: In vivo efficacy, BR64 TNBC Claudin-low tumor model; parameters: species or system mice; conditions: 0.27 mg/kg

B1: huE22-AcBut-CM: huE22 conjugated via lysine residues to AcBut-N-acetyl-γ-calicheamicin dimethyl hydrazide (AcBut-CM) (conjugate)
heavy: QVQLVQSGAEVKKPGASVKVSCKASGYTFTGYYIHWVRQAPGQGLEWMGWIYPGNFNTKYNERFKGRVTMTTDTSTSTAYMELRSLRSDDTAVYYCAREDGSPYYAMDYWGQGTSVTVSS[human IgG1 constant region omitted here]
light: DIVMTQTPLSLSVTPGQPASISCRSSQSLVHSNGNTFLYWYLQKPGQSPQLLIYRVSNRFSGVPDRFSGSGSGTDFTLKISRVEAEDVGVYYCFQATHVPWTFGGGTKVEIKRTVAAPSVFIFPPSDEQLKSGTASVVCLLNNFYPREAKVQWKVDNALQSGNSQESVTEQDSKDSTYSLSSTLTLSKADYEKHKVYACEVTHQGLSSPVTKSFNRGEC
tumor volume ± SEM ([1]; Day 60): 48 ± 17 mm^3
tumor volume ± SEM ([1]; Day 95): 363 ± 100 mm^3
tumor volume ± SEM ([1]; Day 109): 714 ± 198 mm^3
Regression (TTP, Days) ([1]; BR56 PDX): Regression (60) Days
tumor volume ± SEM ([1]; Day 0): 141 ± 12 mm^3
tumor volume ± SEM ([1]; Day 33): 14 ± 4 mm^3
tumor volume ± SEM ([1]; Day 67): 75 ± 29 mm^3
tumor volume ± SEM ([1]; Day 74): 155 ± 51 mm^3
tumor volume ± SEM ([1]; Day 81): 207 ± 56 mm^3
tumor volume ± SEM ([1]; Day 88): 270 ± 78 mm^3
tumor volume ± SEM ([1]; Day 102): 530 ± 143 mm^3
Regression (TTP, Days) or % TGI ([2]; 0.018 mg/kg, OV45 PDX): No activity
regressions, tumor regrowth in some animals after ([2]; 0.09 mg/kg): 50 days
mean tumor volume ([2]; 0.09 mg/kg, Day 60): 118 ± 99
mean tumor volume ([2]; 0.09 mg/kg, Day 0): 145 ± 15
mean tumor volume ([2]; 0.09 mg/kg, Day 3): 240 ± 41
mean tumor volume ([2]; 0.09 mg/kg, Day 8): 147 ± 23
mean tumor volume ([2]; 0.09 mg/kg, Day 21): 15 ± 1
mean tumor volume ([2]; 0.09 mg/kg, Day 33): 0 ± 0
mean tumor volume ([2]; 0.09 mg/kg, Day 39): 0 ± 0
mean tumor volume ([2]; 0.09 mg/kg, Day 46): 0 ± 0
mean tumor volume ([2]; 0.09 mg/kg, Day 53): 30 ± 30
mean tumor volume ([2]; 0.09 mg/kg, Day 67): 256 ± 165
mean tumor volume ([2]; 0.09 mg/kg, Day 74): 423 ± 257
mean tumor volume ([2]; 0.09 mg/kg, Day 81): 443 ± 252
mean tumor volume ([2]; 0.09 mg/kg, Day 88): 743 ± 256
mean tumor volume ([2]; 0.09 mg/kg, Day 96): 1576 ± 208
Regression (TTP, Days) ([2]; 0.09 mg/kg, OV45 PDX): Regression (60) Days
mean tumor volume ([2]; 0.27 mg/kg, Day 60): 0 ± 0
mean tumor volume ([2]; 0.27 mg/kg, Day 109): 0 ± 0
mean tumor volume ([2]; 0.27 mg/kg, Day 0): 153 ± 20
mean tumor volume ([2]; 0.27 mg/kg, Day 3): 177 ± 39
mean tumor volume ([2]; 0.27 mg/kg, Day 8): 35 ± 5
mean tumor volume ([2]; 0.27 mg/kg, Day 21): 0 ± 0
mean tumor volume ([2]; 0.27 mg/kg, Day 33): 0 ± 0
mean tumor volume ([2]; 0.27 mg/kg, Day 39): 0 ± 0
mean tumor volume ([2]; 0.27 mg/kg, Day 46): 0 ± 0
mean tumor volume ([2]; 0.27 mg/kg, Day 53): 0 ± 0
mean tumor volume ([2]; 0.27 mg/kg, Day 67): 0 ± 0
mean tumor volume ([2]; 0.27 mg/kg, Day 74): 0 ± 0
mean tumor volume ([2]; 0.27 mg/kg, Day 81): 0 ± 0
mean tumor volume ([2]; 0.27 mg/kg, Day 88): 0 ± 0
mean tumor volume ([2]; 0.27 mg/kg, Day 96): 0 ± 0
mean tumor volume ([2]; 0.27 mg/kg, Day 102): 0 ± 0
mean tumor volume ([2]; 0.27 mg/kg, Day 116): 0 ± 0
mean tumor volume ([2]; 0.27 mg/kg, Day 123): 0 ± 0
mean tumor volume ([2]; 0.27 mg/kg, Day 131): 0 ± 0
mean tumor volume ([2]; 0.27 mg/kg, Day 137): 0 ± 0
mean tumor volume ([2]; 0.27 mg/kg, Day 141): 0 ± 0
mean tumor volume ([2]; 0.27 mg/kg, Day 158): 0 ± 0
mean tumor volume ([2]; 0.27 mg/kg, Day 166): 0 ± 0
Regression (TTP, Days) ([2]; 0.27 mg/kg, OV45 PDX): Regression (200) Days
tumor growth delay ([2]; 0.036 dose level): ~25 days
Regression (TTP, Days) [3]: Regression (152) Days
# Animals with tumors ([4]; 380 cells implanted per animal, 10 animals in group, 21 weeks post-injection): 7
reduction of number of TIC vs control-AcBut-CM treated ([4]; p=0.0007): about 2.6 fold
TIC frequency (1 TIC in x cells) ([4]; tumors harvested day 21 post-initial treatment, scored 21 weeks post-injection): 270 cells
Regression (TTP, Days) or % TGI [5]: No activity
